Data from PubChem BioAssay AID2546 (National Center for Advancing Translational Sciences (NCATS), 2010).
Out of some 310,000 compounds screened, about 11,000 (3.5%) were called active. The inconclusive results got no clear call from the source; some entries with a clear call stand among them for comparison. Calls follow the shape of the dose curve; as a rule, active = well fitted inhibition curve with a large enough effect; inconclusive = small, poorly fitted or top-dose-only effect, or effect the other way; inactive = flat fitted curve, though single readings scatter. No potency is given beside an inconclusive call; the fits are too rough.

Assay: VP16 counterscreen qHTS for inhibitors of ROR gamma transcriptional activity;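 also: Gal4-VP16 expression switched on by copper sulfate through the metallothionein promoter; nearly all actives have a fitted effect of over 50% in size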
Conditions: Drosophila S2 Gal4-VP16 UAS-luciferase, luminescence, 20 h; activity, negative = inhibition: at 53.6 µM (top of the series)
% is scaled to controls: 0 for no effect and ±100 for the full control effect; potency is read from the fitted curve at half-maximal effect; tags tell the direction and shape of the fitted curve.

| Structure (SMILES) | Potency | activity, negative = inhibition |
| --- | --- | --- |
| O=S(=O)(Cc1ccccc1)Nc1cccc(F)c1 | inconclusive [inhibitor, single point] | – |
| COc1cc(NC(=S)N2CCN(Cc3ccccc3)CC2)cc(OC)c1 | inconclusive [inhibitor, single point] | – |
| Cc1cccc(/C=N/NC(=O)c2ccc(NC(=O)c3cccc(Cl)c3)cc2)n1 | inconclusive [inhibitor, single point] | – |
| c1ccc2c(-c3csc(-c4ccncc4)n3)c[nH]c2c1 | inconclusive [activator, single point] | – |
| Cc1ccc(N(CC(=O)N/N=C/c2cc(C)n(-c3ccccc3C)c2C)S(C)(=O)=O)cc1 | inconclusive [inhibitor, single point] | – |
| CC(C)Cn1c(=O)c(C(=O)Nc2cnccn2)c(O)c2ccccc21 | – | inactive: -1.15% |
| CCOc1ccc(C(=O)NC(C)(C)CC)cc1 | inconclusive [activator, single point] | – |
| Cc1ccccc1-n1c(C)cc(/C=N/NC(=O)c2ccncc2)c1C | active: 10 µM | – |
| O=C1c2ccccc2C(=O)N1CCCCN(C(=O)c1ccco1)c1ccc(Cl)cc1 | inconclusive [inhibitor, single point] | – |
| O=C(Nc1nccs1)c1cc(Cl)ccc1[N+](=O)[O-] | inconclusive [inhibitor, single point] | – |
| COc1ccc(CNC(=O)C(c2ccc(C)o2)N(C(=O)c2csnn2)c2ccc(C(C)C)cc2)cc1 (stereo not given) | – | inactive: 9.6% |
| O=C(Cn1nc([N+](=O)[O-])nc1Br)NC(c1ccccc1)c1ccccc1 | inconclusive [activator, single point] | – |
| Cc1ccc(-n2c(=S)[nH]c3c(oc4ccccc43)c2=O)cc1C | active: 1.78 µM | – |
| CCOC(=O)c1c(S(=O)(=O)NCC(=O)Nc2cccc(C)c2)c(C)n(C)c1C | – | inactive: 3.78% |
| Cc1ccc(C(=O)Nc2cccc(C(=O)NCc3ccco3)c2)cc1 | – | inactive: -1.78% |
| COCCn1c(=O)c(CCc2ccccc2)nc2cnc(Nc3cccc(OC)c3)nc21 | – | inactive: -3.2% |
| COc1ccc(/C(C)=N/OC/C(O)=C(\C#N)c2nc3ccccc3[nH]2)c(OC)c1 | inconclusive [inhibitor, single point] | – |
| COc1ccccc1NS(=O)(=O)c1ccc(N/N=C(\C)C(C)C)c([N+](=O)[O-])c1 | inconclusive [inhibitor, single point] | – |
| COc1ccc(Cn2c(SCc3ccccc3C)nc3cc(OC)c(OC)cc3c2=N)cc1 | active: 22.4 µM | – |
| O=S1(=O)N=C(N/N=C/c2ccccn2)c2ccccc21 | inconclusive [inhibitor, single point] | – |
